Patent US11654136B2, “Phosphoinositide 3-kinase inhibitor with a zinc binding moiety” (Curis, Inc., priority 2011, dated 2023)

Legend:
Format in all cases: cell-based
WiDr = experiment: Cell proliferation assay WiDr; conditions: Homo sapiens, Colon, 72 hours, read-out: IC50 antiproliferative activity
Description: (§1) The cells were then incubated with compounds at various concentrations for 72 hours in culture medium supplemented with 0.5% (v/v) fetal bovine serum (FBS). Growth inhibition was accessed by adenosine triphosphate (ATP) content assay using Promega CellTiter-Glo kit. Promega CellTiter-Glo kit is an ATP monitoring system based on firefly luciferase. Briefly, 16 μl of mammalian cell lysis and substrate solution was added to 84 µl of culture medium per well to lyse the cells and stabilize the ATP. The mixture was shaken and incubated for 30 minutes and subsequently the luminescence was measured. IC50 values were calculated using PRISM software (GraphPad Software) with sigmoidal dose-response curve fitting.

HCT116 = experiment: Cell proliferation assay HCT116; conditions: Homo sapiens, HCT-116, Colon, 72 hours, read-out: IC50 antiproliferative activity
Description: as §1

SW403 = experiment: Cell proliferation assay SW403; conditions: Homo sapiens, SW-403, Colon, 72 hours, read-out: IC50 antiproliferative activity
Description: as §1

SW620 = experiment: Cell proliferation assay SW620; conditions: Homo sapiens, SW-620, Colon, 72 hours, read-out: IC50 antiproliferative activity
Description: as §1

SWI-116 = experiment: Cell proliferation assay SWI-116; conditions: Homo sapiens, Colon, 72 hours, read-out: IC50 antiproliferative activity
Description: as §1

T-84 = experiment: Cell proliferation assay T-84; conditions: Homo sapiens, T84, Colon, 72 hours, read-out: IC50 antiproliferative activity
Description: as §1

H358 = experiment: Cell proliferation assay H358; conditions: Homo sapiens, NCI-H358, NSCLC, 72 hours, read-out: IC50 antiproliferative activity
Description: as §1

H292 = experiment: Cell proliferation assay H292; conditions: Homo sapiens, NCI-H292, NSCLC, 72 hours, read-out: IC50 antiproliferative activity
Description: as §1

H2122 = experiment: Cell proliferation assay H2122; conditions: Homo sapiens, NCI-H2122, NSCLC, 72 hours, read-out: IC50 antiproliferative activity
Description: as §1

H460 = experiment: Cell proliferation assay H460; conditions: Homo sapiens, NCI-H460, NSCLC, 72 hours, read-out: IC50 antiproliferative activity
Description: as §1

A549 = experiment: Cell proliferation assay A549; conditions: Homo sapiens, NSCLC, 72 hours, read-out: IC50 antiproliferative activity
Description: as §1

Calu6 = experiment: Cell proliferation assay Calu6; conditions: Homo sapiens, Calu-6, NSCLC, 72 hours, read-out: IC50 antiproliferative activity
Description: as §1

MiaPaca2 = experiment: Cell proliferation assay MiaPaca2; conditions: Homo sapiens, MIA PaCa-2, Pancreas, 72 hours, read-out: IC50 antiproliferative activity
Description: as §1

CaPan2 = experiment: Cell proliferation assay CaPan2; conditions: Homo sapiens, Capan-2, Pancreas, 72 hours, read-out: IC50 antiproliferative activity
Description: as §1

CFPAC-1 = experiment: Cell proliferation assay CFPAC-1; conditions: Homo sapiens, Pancreas, 72 hours, read-out: IC50 antiproliferative activity
Description: as §1

PANC-1 = experiment: Cell proliferation assay PANC-1; conditions: Homo sapiens, Pancreas, 72 hours, read-out: IC50 antiproliferative activity
Description: as §1

SW1990 = experiment: Cell proliferation assay SW1990; conditions: Homo sapiens, Pancreas, 72 hours, read-out: IC50 antiproliferative activity
Description: as §1

HCC1500 = experiment: Cell proliferation assay HCC1500; conditions: Homo sapiens, Breast, 72 hours, read-out: IC50 antiproliferative activity
Description: as §1

HCC1806 = experiment: Cell proliferation assay HCC1806; conditions: Homo sapiens, Breast, 72 hours, read-out: IC50 antiproliferative activity
Description: as §1

MDA-MB-231 = experiment: Cell proliferation assay MDA-MB-231; conditions: Homo sapiens, Breast, 72 hours, read-out: IC50 antiproliferative activity
Description: as §1

SKBr3 = experiment: Cell proliferation assay SKBr3; conditions: Homo sapiens, SK-BR-3, Breast, 72 hours, read-out: IC50 antiproliferative activity
Description: as §1

BT474 = experiment: Cell proliferation assay BT474; conditions: Homo sapiens, BT-474, Breast, 72 hours, read-out: IC50 antiproliferative activity
Description: as §1

MDA-MB-361 = experiment: Cell proliferation assay MDA-MB-361; conditions: Homo sapiens, Breast, 72 hours, read-out: IC50 antiproliferative activity
Description: as §1

UACC-893 = experiment: Cell proliferation assay UACC-893; conditions: Homo sapiens, Breast, 72 hours, read-out: IC50 antiproliferative activity
Description: as §1

MDA-MB-453 = experiment: Cell proliferation assay MDA-MB-453; conditions: Homo sapiens, Breast, 72 hours, read-out: IC50 antiproliferative activity
Description: as §1

MCF-7 = experiment: Cell proliferation assay MCF-7; conditions: Homo sapiens, MCF7, Breast, 72 hours, read-out: IC50 antiproliferative activity
Description: as §1

T47D = experiment: Cell proliferation assay T47D; conditions: Homo sapiens, Breast, 72 hours, read-out: IC50 antiproliferative activity
Description: as §1

ZR-75-1 = experiment: Cell proliferation assay ZR-75-1; conditions: Homo sapiens, Breast, 72 hours, read-out: IC50 antiproliferative activity
Description: as §1

MDA-MB-468 = experiment: Cell proliferation assay MDA-MB-468; conditions: Homo sapiens, Breast, 72 hours, read-out: IC50 antiproliferative activity
Description: as §1

MOLT-4 = experiment: Cell proliferation assay MOLT-4; conditions: Homo sapiens, ALL, 72 hours, read-out: IC50 antiproliferative activity
Description: as §1

SUP-B15 = experiment: Cell proliferation assay SUP-B15; conditions: Homo sapiens, ALL, 72 hours, read-out: IC50 antiproliferative activity
Description: as §1

HL-60 = experiment: Cell proliferation assay HL-60; conditions: Homo sapiens, AML, 72 hours, read-out: IC50 antiproliferative activity
Description: as §1

U937 = experiment: Cell proliferation assay U937; conditions: Homo sapiens, U-937, AML, 72 hours, read-out: IC50 antiproliferative activity
Description: as §1

THP-1 = experiment: Cell proliferation assay THP-1; conditions: Homo sapiens, AML, 72 hours, read-out: IC50 antiproliferative activity
Description: as §1

MV-4-11 = experiment: Cell proliferation assay MV-4-11; conditions: Homo sapiens, MV4-11, AML, 72 hours, read-out: IC50 antiproliferative activity
Description: as §1

Pfeiffer = experiment: Cell proliferation assay Pfeiffer; conditions: Homo sapiens, B-Cell Lymphoma, 72 hours, read-out: IC50 antiproliferative activity
Description: as §1

Raji = experiment: Cell proliferation assay Raji; conditions: Homo sapiens, B-Cell Lymphoma, 72 hours, read-out: IC50 antiproliferative activity
Description: as §1

RL = experiment: Cell proliferation assay RL; conditions: Homo sapiens, B-Cell Lymphoma, 72 hours, read-out: IC50 antiproliferative activity
Description: as §1

DOHH2 = experiment: Cell proliferation assay DOHH2; conditions: Homo sapiens, DOHH-2, B-Cell Lymphoma, 72 hours, read-out: IC50 antiproliferative activity
Description: as §1

Granta 519 = experiment: Cell proliferation assay Granta 519; conditions: Homo sapiens, B-Cell Lymphoma, 72 hours, read-out: IC50 antiproliferative activity
Description: as §1

Su-DHL4 = experiment: Cell proliferation assay Su-DHL4; conditions: Homo sapiens, SU-DHL-4, B-Cell Lymphoma, 72 hours, read-out: IC50 antiproliferative activity
Description: as §1

Daudi = experiment: Cell proliferation assay Daudi; conditions: Homo sapiens, B-Cell Lymphoma, 72 hours, read-out: IC50 antiproliferative activity
Description: as §1

HH = experiment: Cell proliferation assay HH; conditions: Homo sapiens, T-Cell Lymphoma, 72 hours, read-out: IC50 antiproliferative activity
Description: as §1

MJ = experiment: Cell proliferation assay MJ; conditions: Homo sapiens, T-Cell Lymphoma, 72 hours, read-out: IC50 antiproliferative activity
Description: as §1

HuT78 = experiment: Cell proliferation assay HuT78; conditions: Homo sapiens, T-Cell Lymphoma, 72 hours, read-out: IC50 antiproliferative activity
Description: as §1

K562 = experiment: Cell proliferation assay K562; conditions: Homo sapiens, CML, 72 hours, read-out: IC50 antiproliferative activity
Description: as §1

MEG-01 = experiment: Cell proliferation assay MEG-01; conditions: Homo sapiens, CML, 72 hours, read-out: IC50 antiproliferative activity
Description: as §1

RPMI-8226 = experiment: Cell proliferation assay RPMI-8226; conditions: Homo sapiens, Multiple Myeloma, 72 hours, read-out: IC50 antiproliferative activity
Description: as §1

OPM-2 = experiment: Cell proliferation assay OPM-2; conditions: Homo sapiens, Multiple Myeloma, 72 hours, read-out: IC50 antiproliferative activity
Description: as §1

ARH77 = experiment: Cell proliferation assay ARH77; conditions: Homo sapiens, ARH-77, Multiple Myeloma, 72 hours, read-out: IC50 antiproliferative activity
Description: as §1

`O=C(CCCCCCC(=O)Nc1ccccc1)NO` [SAHA, Suberoylanilide hydroxamic acid] gave an IC50 (WiDr) of 1 to 10 µM, an IC50 (HCT116) of 1 to 10 µM and an IC50 (SW403) of 1 to 10 µM. It also gave an IC50 (SW620) of 1 to 10 µM, an IC50 (SWI-116) of 1 to 10 µM and an IC50 (T-84) of 1 to 10 µM. The IC50 (H358) was 1 to 10 µM, the IC50 (H292) was 1 to 10 µM and the IC50 (H2122) was 1 to 10 µM. The IC50 (H460) was > 10 µM, the IC50 (A549) was 1 to 10 µM and the IC50 (Calu6) was 1 to 10 µM. It also gave an IC50 (MiaPaca2) of 1 to 10 µM, an IC50 (CaPan2) of 1 to 10 µM and an IC50 (CFPAC-1) of 1 to 10 µM. The IC50 (PANC-1) was 1 to 10 µM, the IC50 (SW1990) was 1 to 10 µM and the IC50 (HCC1500) was 1 to 10 µM. For the same compound, the IC50 (HCC1806) was 1 to 10 µM, the IC50 (MDA-MB-231) was 1 to 10 µM and the IC50 (SKBr3) was 1 to 10 µM. For the same compound, the IC50 (BT474) was 1 to 10 µM, the IC50 (MDA-MB-361) was 1 to 10 µM and the IC50 (UACC-893) was 1 to 10 µM. It also gave an IC50 (MDA-MB-453) of 0.1 to 1 µM, an IC50 (MCF-7) of 1 to 10 µM and an IC50 (T47D) of 1 to 10 µM. The IC50 (ZR-75-1) was 1 to 10 µM, the IC50 (MDA-MB-468) was 1 to 10 µM and the IC50 (MOLT-4) was 0.1 to 1 µM. The IC50 (SUP-B15) was 0.1 to 1 µM, the IC50 (HL-60) was 0.1 to 1 µM and the IC50 (U937) was 0.1 to 1 µM. The IC50 (THP-1) was > 10 µM, the IC50 (MV-4-11) was 0.1 to 1 µM and the IC50 (Pfeiffer) was 1 to 10 µM. It also gave an IC50 (Raji) of 1 to 10 µM, an IC50 (RL) of 0.1 to 1 µM and an IC50 (DOHH2) of 0.1 to 1 µM. The IC50 (Granta 519) was 1 to 10 µM, the IC50 (Su-DHL4) was 1 to 10 µM and the IC50 (Daudi) was 1 to 10 µM. It also gave an IC50 (HH) of 0.1 to 1 µM, an IC50 (MJ) of 0.1 to 1 µM and an IC50 (HuT78) of 0.01 to 0.1 µM. The IC50 (K562) was 1 to 10 µM, the IC50 (MEG-01) was 1 to 10 µM and the IC50 (RPMI-8226) was 1 to 10 µM. It also gave an IC50 (OPM-2) of 0.1 to 1 µM and an IC50 (ARH77) of 1 to 10 µM.
